Results as given in PubChem BioAssay AID1508642 (National Center for Advancing Translational Sciences (NCATS), 2021).
About 200 (0.47%) of roughly 43,000 compounds were called active. Another 12% or so got no clear call; they are omitted. The call rests on the fitted dose curve; in most records, active means well fitted cell-killing curve with a large enough effect; inconclusive means small, poorly fitted or top-dose-only effect, or effect the other way; inactive means flat fitted curve, though single readings scatter. Some of the results follow.

Experiment: Cell viability qHTS assay in S16 Pmp22-F2sN cells; further: nearly all actives have a fitted effect of over 65% in size
Conditions: S16 Pmp22-F2sN Schwann cells (luciferase reporters placed in the Pmp22 gene) viability, CellTiter-Glo, 24 h; series mostly up to 57.5 µM; activity change, negative = cytotoxicity: at the top concentration
How it was run: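 Seed 500-1,000 S16 Pmp22-F2sN cells per well in phenol-red-free DMEM with 10% heat-inactivated FBS; pin-add 23 nL compound; incubate 24 h at 37C; add CellTiter-Glo, wait 15 min protected from light; read luminescence.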
On the % scale 0 is the no-effect control and ±100 the full control effect.

SMILES | activity change, negative = cytotoxicity
Cc1nnc(N2C(=O)c3oc4ccccc4c(=O)c3C2c2ccc(C(C)(C)C)cc2)s1 (configuration not stated) | inactive: -1.05%
Cc1ccc(NC(=O)CCOc2ccccc2)cc1 | inactive: 2.98%
COc1ccccc1N1CCN(C(=O)Cn2c(=O)n3nc(-c4ccc(C)cc4)nc3c3ccccc32)CC1 | inactive: 1.18%
COc1ccc(NC(=O)c2cccc(N3CCCS3(=O)=O)c2)cc1OC | inactive: 5.86%
COC(=O)c1ccc(NC(=O)CCS(=O)(=O)c2ccc(Br)s2)cc1 | inactive: -0.539%
Cc1nc(N2CCCC2)ncc1C(=O)NCc1cccc(Cl)c1 | inactive: 5.02%
CCCN(Cc1cccs1)C(=O)Nc1cc(Cl)ccc1C | inactive: 5.88%
Cc1nn(CC(=O)NCc2ccc(F)cc2)c2ccccc12 | inactive: 9.09%
Cc1ccc2[nH]c3c(=O)n(CC(=O)NCc4ccco4)ncc3c2c1 | inactive: 1.57%
COc1ccc(Cl)cc1NC(=O)Cn1ncc2c3ccccc3n(C)c2c1=O | inactive: 0.57%
CCOC(=O)c1cccc(NC(=O)CCCn2nc(C)c3c(C)n(-c4ccccc4)nc3c2=O)c1 | inactive: 1.36%
CC(=O)Nc1ccc(NC(=O)C2CCN(c3c(NC(C)=O)c(C)nn3-c3ccccc3)CC2)cc1 | inactive: 6.64%
CCOC(=O)c1c(C)n(-c2ccccc2)c2ccc(OC(=O)c3ccccc3NC(=O)C(C)C)cc12 | inactive: -5.51%
CCOC(=O)c1ccc2nc(C)cc(Nc3cccc(C(=O)O)c3)c2c1 | inactive: -4.61%
O=C(NCc1ccc(Cl)cc1)c1ccc2c(Cl)c3c(nc2c1)CCCC3 | inactive: 20.9%
Cc1ccc(C)c(N2CCN(C(=O)CCC(=O)Nc3ccc4nc(N5CCCCC5)cc(C)c4c3)CC2)c1 | inactive: -22.9%
Cc1ccc(OCCSc2nnc(-c3cccs3)o2)cc1Cl | inactive: 2.48%
CC(=O)Nc1ccc(NC(=O)C2CCCN(S(=O)(=O)c3ccc4c(c3)CCCC(=O)N4)C2)cc1 (configuration not stated) | inactive: 7.86%
Cc1cc(N2CCN(c3cccc(C)c3C)CC2)n2cnnc2n1 | inactive: -16.6%
CCOC(=O)c1cnn(-c2ccc(C(=O)Nc3ccc(OC(F)(F)F)cc3)cc2)c1N | inactive: -0.71%
CCCCN(C)CCNC(=O)c1ccc(Cn2c(=O)[nH]c3cc(OC)c(OC)cc3c2=O)cc1 | inactive: -0.235%
Cc1cccc(NC(=O)Nc2ccc(F)cc2)n1 | inactive: 3.27%
Cc1ccc(N(CC(=O)NCCc2ccccc2C)S(=O)(=O)N(C)C)cc1 | inactive: 0.845%
COc1ccccc1CNC(=O)c1cccc(N2CCCS2(=O)=O)c1 | inactive: 4.2%
CCOC(=O)c1ccc(NC(=O)C2CC(=O)NC(=Nc3ccc(C)c(C)c3)S2)cc1 (configuration not stated) | inactive: 3.58%

SMILES | activity change, negative = cytotoxicity
COc1ccccc1CNC(=O)Cn1c(=O)oc2cc(S(=O)(=O)N3CCCC3)ccc21 | inactive: -4.75%
CCc1nc2nc(C)cc(Nc3cc(Cl)ccc3C)n2n1 | inactive: -5.19%
COc1ccc(-c2noc(N(c3ccc(F)c(Cl)c3)c3nc(-c4ccc(OC)c(OC)c4)no3)n2)cc1OC | inactive: 3.49%
COc1cc(-c2nc(S(=O)(=O)c3ccc(Br)cc3)c(N3CCOCC3)o2)cc(OC)c1OC | inactive: -3.39%
COc1ccc(Br)cc1C(=O)Nc1cccc2ccc(C)nc12 | inactive: 0.204%
CCOc1ccc(CCNC(=O)CCc2c(C)nc3c(c(C)nn3-c3ccc(C)c(C)c3)c2C)cc1 | inactive: -12.8%
COc1ccc(Nc2nc(-c3cccc(Cl)c3)c3c(n2)-c2ccccc2OC3)cc1 | inactive: 1.78%
CCOc1ccccc1CNC(=O)Cc1ccc(NC(=O)N2CCCCc3ccccc32)cc1 | inactive: 2.88%
CCOc1ccc(NC(=O)CSc2nc3ccsc3c(=O)n2C(C)CC)cc1 (configuration not stated) | inactive: 0.327%
CCOc1cccc(Nc2nn(-c3ccc(OC(F)(F)F)cc3)nc2C(C)=O)c1 | inactive: 0.25%
CCOC(=O)c1cnc2c(C)c(Cl)ccc2c1NCCc1ccc(OC)c(OC)c1 | inactive: 15.2%
Cc1cccc2c1-c1sc(C(=O)N3CCN(c4ccccc4)CC3)cc1CO2 | inactive: -1.99%
COc1ccc(-c2noc(N3CCC(C(=O)N4CCN(c5ccccc5OC)CC4)CC3)n2)cc1 | inactive: -14.3%
CCCCNS(=O)(=O)c1ccc2nc(-c3cccnc3)cc(C(=O)NCCCOC(C)C)c2c1 | inactive: 1.46%
Cc1cccc(Cn2cc3c(=O)n(CC(=O)Nc4c(C)cccc4C)nc-3c3cc(F)ccc32)c1 | inactive: 9.82%
Cc1c(Cl)cccc1NC(=O)CCCn1nc(C)c2sc3ccccc3c2c1=O | inactive: 9.7%
Cc1ccc(NC(=O)C2CCN(S(=O)(=O)c3c(C)noc3C)CC2)cc1 | inactive: -0.683%
CC1(C)CC(=O)c2cc(-c3nc(-c4ccccc4)cs3)c(=O)[nH]c2C1 | inactive: 7.71%
CC(C)Sc1nc2sc3c(c2c(=O)n1Cc1ccccc1)CCCC3 | inactive: 25.1%
Cc1cc(NC(=O)C(C)(C)C)cc(-c2nc3ncccc3o2)c1O | inactive: 8.41%
Cc1cc(NC(=O)c2cnc3c(-c4ccccc4)c(C)nn3c2C)ccc1Br | inactive: 8.14%
Cc1cccc(N2CCN(C(=O)CN3C(=O)COc4ccc(S(=O)(=O)N5CCCC5)cc43)CC2C)c1 (configuration not stated) | inactive: 7.35%
COc1ccc(OCC(=O)NCC(c2ccc(OC)cc2)N2CCOCC2)cc1 (configuration not stated) | inactive: 12.8%
COc1ccc(-c2c(C)c3ccc(O)c(CN4CCCC4)c3oc2=O)cc1 | inactive: 4%
COc1cccc(CNCCSc2nnnn2-c2ccccc2)c1OC | inactive: -0.0805%

SMILES | activity change, negative = cytotoxicity
CCc1c(CN2CCN(c3ccccc3F)CC2)csc1C | inactive: 3.88%
CCn1c(SCC(=O)c2ccccc2)nnc1-c1cccc(Cl)c1 | inactive: -15.2%
Cc1ccc(/C=C/c2onc(C)c2S(=O)(=O)N2CCC(C(=O)NCc3ccc(OC(C)C)cc3)CC2)cc1 | inactive: 2.44%
COc1ccc(CC(=O)NC2CC(=O)N(c3ccc(C)c(C)c3)C2)cc1OC (configuration not stated) | inactive: 1.57%
O=C(Cn1c(=O)oc2cc(S(=O)(=O)N3CCCCC3)ccc21)NCc1ccc(F)cc1 | inactive: 2.23%
CCc1ccc(NC(=O)CSc2ncc(S(=O)(=O)c3cc(C)ccc3C)c(=O)[nH]2)cc1 | inactive: 5.89%
CCOC(=O)C(Cc1ccccc1)NC(=O)CCc1c(C)nc2c(c(C)nn2-c2ccc(C)c(C)c2)c1C (configuration not stated) | inactive: 0.435%
COC(=O)c1ccccc1NC(=O)C1CCCN(c2nnc(C)c3c(C)n(-c4ccccc4)nc23)C1 (configuration not stated) | inactive: 11.8%
O=C(CN1C(=O)CCc2cc(S(=O)(=O)N3CCCCC3)ccc21)NCc1ccc(Cl)cc1 | inactive: -17.2%
Cc1cccc2sc(N(Cc3cccnc3)C(=O)C3COc4ccccc4O3)nc12 (configuration not stated) | inactive: 0.445%
Cc1ccc(CNC(=O)CN2C(=O)C3(SCC(=O)N3c3ccc(F)c(F)c3)c3ccccc32)cc1 (configuration not stated) | inactive: -1.36%
COc1ccc(-c2nc(Cn3c(SCc4ccccc4F)nc4cccnc43)c(C)o2)cc1 | inactive: -7.48%
Cc1cccc(S(=O)(=O)c2cn(C)c3cc(N4CCC(C)CC4)c(F)cc3c2=O)c1 | inactive: 0.216%
CCC(=O)N1c2ccc(S(=O)(=O)CCC(=O)NCc3cccc(OC)c3)cc2CC1C (configuration not stated) | inactive: 13.9%
CC(=O)Nc1ccc(NC(=O)c2cc(-c3ccc4c(c3)OCCO4)on2)cc1 | inactive: 14.3%
CCc1ccc(N(CC)C(=O)Cn2cnc3sc(C)c(S(=O)(=O)N4CCN(c5ncccn5)CC4)c3c2=O)cc1 | inactive: -0.0756%
CCCOc1ccccc1C1C(C(=O)Nc2ccccc2)=C(C)Nc2nnnn21 (configuration not stated) | inactive: -15.4%
CCCC1=Nc2cc(C(=O)NCCOC)ccc2Sc2ccccc21 | inactive: -6.67%
Cc1ccc2onc(CC(=O)N3CCN(c4ccccc4)CC3)c2c1 | inactive: -2.42%
CCOc1ccc(NC(=O)C(C)n2c(=O)cc(C)c3c(C)nn(-c4ccccc4)c32)cc1 (configuration not stated) | inactive: 0.819%
N#C/C(=C\c1cc(Br)c(O)c(Br)c1)c1nc2ccccc2c(=O)[nH]1 | inactive: 18.4%
CCc1ccc(OCC(=O)Nc2ccc3c(c2)c2ccccc2n3CC)c(Br)c1 | inactive: -14.5%
O=C(NCc1ccccc1Cl)c1nnc(Cc2ccc(Cl)cc2)o1 | inactive: -0.626%
Cc1cccc(CSc2ccc(-c3cccs3)nn2)c1 | inactive: -8.99%
COc1ccc(-c2noc(CSc3nnc(C)n3-c3ccc(C)c(C)c3)n2)c(OC)c1 | inactive: -23.4%

SMILES | activity change, negative = cytotoxicity
COc1ccc(-c2nc(SCC(=O)NCCc3ccccc3)n[nH]2)cc1 | inactive: 0.561%
Cc1ccc(CCNC(=O)CCn2nc(-c3ccc(C)cc3)ccc2=O)cc1 | inactive: -5.93%
COC(=O)c1ccc2c(=O)n(CCCCCC(=O)N3CCN(c4ccc(Cl)cc4)CC3)c(=O)[nH]c2c1 | inactive: -4.44%
COc1cccc(C(=O)n2nc(-c3cccnc3)nc2NCc2ccc(F)cc2)c1 | inactive: 7.45%
CCN(CC)CCSc1nnc2c3cc(F)ccc3n(CC)c2n1 | inactive: -8.56%
Oc1c(C(c2ccccc2F)N2CCCC2)sc2nc(-c3ccco3)nn12 (configuration not stated) | inactive: 16.5%
O=C(NCCc1ccccc1)c1ccc(CS(=O)(=O)c2ccc(Cl)cc2)o1 | inactive: -4.69%
COc1ccccc1CNC(=O)Cn1c(=O)nc(-c2ccccc2)c2ccccc21 | inactive: 6.56%
CCCSc1nnc2c(n1)OC(c1cccs1)Nc1ccc(Br)cc1-2 (configuration not stated) | inactive: 1.76%
CN(C(=O)CSc1nc2ccccc2n1Cc1ccccc1C#N)c1ccccc1 | inactive: -11.1%
CCOc1ccc(-c2nc3cc(NC(=O)COc4cccc(C)c4)ccc3o2)cc1 | inactive: 0.64%
O=c1c2sc3ccccc3c2n(Cc2ccc(F)cc2Cl)c(=O)n1Cc1ccccc1 | inactive: -6.1%
CCOc1ccc(-n2c(=O)c3c(C)c(C(=O)N(C)C)sc3n(Cc3cc(C)ccc3C)c2=O)cc1 | inactive: 2.15%
Cc1ccc(S(=O)(=O)C(CNC(=O)C(=O)NCc2ccc(Cl)cc2)c2ccco2)cc1 (configuration not stated) | inactive: -1.76%
CCOC(=O)c1ccc(-c2ccc(/C=C(\C#N)C(=O)Nc3ccc(C)cc3)o2)cc1 | inactive: -4.25%
COCC(=O)Nc1c(C(=O)Nc2ccc(C)cc2)oc2ccccc12 | inactive: 8.05%
Cc1ccc2oc(-c3ccc(C)c(NC(=O)c4ccc(-c5ccccc5[N+](=O)[O-])o4)c3)nc2c1 | inactive: -5.87%
CCOc1ccc(S(=O)(=O)N(CC(=O)Nc2ccc3c(c2)OCO3)c2ccc(C)cc2)cc1 | inactive: -16.3%
CCn1cc(S(=O)(=O)c2ccc(Cl)cc2)c(=O)c2cc(F)c(N3CCOCC3)cc21 | inactive: -20.7%
CCN(CC)S(=O)(=O)c1ccc(N2CCCCS2(=O)=O)cc1 | inactive: 2.11%
Cc1ccc(CNC(=O)CN2C(=O)CCc3cc(S(=O)(=O)N4CCCCC4)ccc32)cc1 | inactive: 22.9%
CC(CNC(=O)C1CCN(C(=O)c2cc3sccc3n2C)CC1)c1ccccc1 (configuration not stated) | inactive: -3.92%
